Test results from PubChem BioAssay AID360 (National Center for Advancing Translational Sciences (NCATS), 2006).
Hit rate of the full screen: of about 48,000 compounds, about 550 (1.1%) were called active. Not shown: some 4% with an inconclusive outcome. Rule as the data show it: active = potency below about 15 µM; inconclusive = mostly about 16 µM to 33 µM; inactive = weaker than that. Some of the results follow.

These compounds were tested against Lysosomal acid glucosylceramidase (Homo sapiens) (UniProt P04062) (assay: Glucocerebrosidase). Details: purified enzyme, resorufin glucoside fluorescence (screen aimed at inhibitors), 20 min.
Outline: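 Normal human glucocerebrosidase (0.2 nM final) was assayed with resorufin β-D-glucopyranoside (30 uM final) in 50mM citric acid/KH2PO4, 10mM sodium taurocholate, 0.01% tween-20, pH 5.9. Compounds were titrated; fluorescence (Ex 548, Em 600) read after 20 min at RT.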
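Also: the screen sought inhibitors.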
Potency is read from the fitted curve at half-maximal effect.

UniProt P04062, sequence (P04062 whole entry, looked up): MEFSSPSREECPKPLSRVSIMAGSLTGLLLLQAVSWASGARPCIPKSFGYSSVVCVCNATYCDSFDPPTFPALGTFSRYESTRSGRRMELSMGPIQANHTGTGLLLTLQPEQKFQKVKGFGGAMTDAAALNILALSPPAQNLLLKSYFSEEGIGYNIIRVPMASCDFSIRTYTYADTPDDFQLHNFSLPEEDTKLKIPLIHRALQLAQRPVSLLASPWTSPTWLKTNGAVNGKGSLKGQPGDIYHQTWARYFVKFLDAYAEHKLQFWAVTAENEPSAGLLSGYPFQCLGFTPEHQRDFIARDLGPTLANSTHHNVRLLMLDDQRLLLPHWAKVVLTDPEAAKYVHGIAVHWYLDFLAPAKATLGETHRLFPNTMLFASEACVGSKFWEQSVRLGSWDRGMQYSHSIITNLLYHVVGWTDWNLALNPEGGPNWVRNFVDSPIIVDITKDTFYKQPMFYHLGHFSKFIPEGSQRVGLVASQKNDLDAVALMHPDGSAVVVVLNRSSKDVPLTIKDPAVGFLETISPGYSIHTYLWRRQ

Potency, active:
N#CC1=C(N)N(c2ccccc2)C2=C(C(=O)CCC2)C1c1ccsc1 (stereo not drawn) 14.9 µM

Potency, inactive:
CCCc1nnc(SCC(=O)Nc2ccc(OCC)cc2)n1N > 76.9 µM
O=C(O)C1CC1c1ccc(Br)cc1 (stereo not drawn) > 76.9 µM
CCOc1ccc2cc(C#N)c(SCC(=O)N3CCOCC3)nc2c1 > 76.9 µM
C=CCc1cccc(C2Nc3ccccc3C(=O)N2O)c1O (stereo not drawn) > 76.9 µM
O=C(NCc1ccccc1)NC(=O)c1ccccc1 > 76.9 µM
O=C(NC(=O)c1ccc(Cl)c(Cl)c1)OC1CCS(=O)(=O)C1 (stereo not drawn) > 76.9 µM
O=C(Oc1ccc2c(c1)CCC2)N1CCOCC1 > 76.9 µM
CCC(C)NS(=O)(=O)c1ccc(OCC(=O)NCc2cccnc2)cc1 (stereo not drawn) > 76.9 µM
O=C(CSc1nnc(-c2cccnc2)o1)c1cc2ccccc2oc1=O > 76.9 µM
COC(=O)[C@@H](NC(=O)NC(C)CCc1ccccc1)C(C)C (stereo partly drawn) > 76.9 µM
O=C(Nc1ccc2nc[nH]c2c1)c1ccco1 > 76.9 µM
O=C1c2ccncc2C(=O)N1C1CCCCC1 > 76.9 µM
COc1ccc(OC)c(NS(=O)(=O)c2cc(OC)ccc2OC)c1 > 76.9 µM
O=S(=O)(c1ccc(S(=O)(=O)N2CCN3CCCC3C2)cc1)N1CCCC1 (stereo not drawn) > 76.9 µM
C=CCn1c(N)cc(=O)nc1SCC(=O)NC(C)c1ccccc1 (stereo not drawn) > 76.9 µM
COc1cc(OC)cc(C(=O)OCc2cc3ccccc3[nH]c2=O)c1 > 76.9 µM
Nc1c(NCc2ccccc2F)c(=O)[nH]c(=O)n1Cc1ccccc1 > 76.9 µM
CCC(c1nnnn1Cc1ccccc1)N1CCN(C(=O)c2ccco2)CC1 (stereo not drawn) > 76.9 µM
Cc1nnc(NCCc2ccccc2)n(N)c1=O > 76.9 µM
CC(C)N(C=O)C1(C(=O)NC2CCCCC2)CCCCC1 > 76.9 µM
CCCn1c(SCC(=O)NC(=O)Nc2ccc(C)cc2C)n[nH]c1=O > 76.9 µM
O=C(Oc1ccc(N(Cc2cccs2)C2=NS(=O)(=O)c3ccccc32)cc1)c1ccco1 > 76.9 µM
Cc1ccc(NS(=O)(=O)c2ccc(CCC(=O)N3CCOCC3)cc2)cc1 > 76.9 µM
O=C(O)CN1CCN(Cc2ccccc2Cl)C1=O > 76.9 µM
CSc1nnc2c(n1)OC(c1cccn1C)N(C(C)=O)c1ccccc1-2 (stereo not drawn) > 76.9 µM
O=C(Nc1ccc(S(=O)(=O)N2CCc3ccccc32)cc1)c1ccc2c(c1)OCO2 > 76.9 µM
O=c1oc2ccccc2n1CSC1=NCCS1 > 76.9 µM
CC1(C(=O)O)CCC(C(=O)N2CCOCC2)C1(C)C (stereo not drawn) > 76.9 µM
CCOC(=O)c1nn(-c2ccccc2)c(=O)c(C#N)c1C > 76.9 µM
CCC(C)NC(=O)CSc1nc2n[nH]c(C)c2c(=N)n1-c1ccc(OC)cc1 (stereo not drawn) > 76.9 µM
O=C1C2CCCN2C(c2ccc(F)cc2)N1c1nccs1 (stereo not drawn) > 76.9 µM
CCOC(=O)CC(=O)CSc1ccc2nnc(-c3ccc(F)cc3)n2n1 > 76.9 µM
COc1cc(CN(C)CCc2ccccn2)cc(OC)c1OC > 76.9 µM
Cc1cc2ccccc2c(=O)n1CC(=O)NCC(=O)N1CCCC1 > 76.9 µM
CCCCOC(=O)C1=C(C)Nc2ncnn2C1c1cccc(OC)c1 (stereo not drawn) > 76.9 µM
CC(C)CSc1nc2c(c(=O)[nH]c(=O)n2C)n1CCc1ccccc1 > 76.9 µM
COC(=O)C(C(=O)OC)N1C(=O)CCC1=O > 76.9 µM
COc1ccc(S(=O)(=O)NCC(=O)N(CC(=O)NCC2CCCO2)c2c(C)cccc2C)cc1 (stereo not drawn) > 76.9 µM
O=C(O)CCn1ccnc1-c1ccccc1 > 76.9 µM
CCOc1nc(-c2ccccc2)ccc1-c1noc(-c2ccco2)n1 > 76.9 µM
CNC(=O)Cn1c(=O)n(C)c2ccccc21 > 76.9 µM
CC(=O)Nc1cc(OC(C)=O)c2nonc2c1OC(C)=O > 76.9 µM
CCOc1ccc(-c2nnc3sc(COc4ccc(C)cc4)nn23)cc1 > 76.9 µM
O=C(Nc1ccc(F)cc1)NC1(C(=O)NCc2ccco2)CCCCC1 > 76.9 µM
Cc1cccc(C(=O)NC2CCN(CC(=O)N3CCOCC3)CC2)c1 > 76.9 µM
CCOc1ccc(C(=O)C(c2ccccc2)N2CCOCC2)cc1 (stereo not drawn) > 76.9 µM
Cc1cc2c(N=O)c(NO)ccc2[nH]1 > 76.9 µM
CC(=O)NC(C)C12CC3CC(CC(C(=O)O)(C3)C1)C2 (stereo not drawn) > 76.9 µM
CCN(CC)S(=O)(=O)c1cccc2cc(C(=O)O)c(O)cc12 > 76.9 µM
COc1ccc(NC(=O)CSc2nnc(-c3ccccc3Cl)n2Cc2ccco2)c(OC)c1 > 76.9 µM
CCOCCCNC(=O)c1cn(C)c(=O)c2cc(OC)c(OC)cc12 > 76.9 µM
CC(C)C(c1nnnn1Cc1ccccc1)N1CCN(Cc2ccco2)CC1 (stereo not drawn) > 76.9 µM
O=C(c1cccs1)N1CCCc2ccccc21 > 76.9 µM
CCOc1ccccc1NC(=O)Cn1nnc(C(=O)Nc2ccc(C)cc2)c1N > 76.9 µM
CC1(C)Cc2noc(N)c2C(C)(C)N1OC(=O)c1cccs1 > 76.9 µM
Cc1ccc(NC(=O)CSCC(=O)Nc2ncc3c(n2)CC(c2ccco2)CC3=O)cc1 (stereo not drawn) > 76.9 µM
O=C(COC(=O)Cc1cccc(C(F)(F)F)c1)NCC1CCCO1 (stereo not drawn) > 76.9 µM
Cc1oc(-c2ccccc2F)nc1CN1CCC(C(=O)NCCC2=CCCCC2)CC1 > 76.9 µM
COc1ccc(-c2noc(C3CCCN(C(=O)CCc4ccccc4)C3)n2)cc1 (stereo not drawn) > 76.9 µM
CCCCN(CC)C(=O)c1ccc(Cl)c(Cl)c1 > 76.9 µM
COc1cc2c(cc1OC)C(C(=O)NCc1cccnc1)C(c1cccnc1)N(C)C2=O (stereo not drawn) > 76.9 µM
Cc1cccc(OCc2nnc(SCc3cc(=O)n4cc(Br)ccc4n3)o2)c1
Cn1c(=O)c2c(nc(NC3CCCCC3)n2CC(O)COc2ccccc2)n(C)c1=O (stereo not drawn) > 76.9 µM
COc1cccc(OC)c1-c1nn2c(-c3cc(-c4ccccc4)n[nH]3)nnc2s1
Cc1ccc(S(=O)(=O)NCCCC(=O)C=[N+]=[N-])cc1
CCC(=O)N1CCNC(=O)C1CC(=O)Nc1ccc(C)c(Cl)c1 (stereo not drawn) > 76.9 µM
O=C(Nc1ccc(-c2noc(-c3cccs3)n2)cc1)c1cccnc1 > 76.9 µM
CCC(c1nnc(SCC(=O)NCC2CCCO2)n1Cc1ccccc1)N(C)C (stereo not drawn) > 76.9 µM
COc1ccccc1CC1(C)NC(=O)N(CC(=O)N2CC(C)OC(C)C2)C1=O (stereo not drawn) > 76.9 µM
CCOC(=O)c1sc(NC(=O)c2c(C)nn(Cc3ccccc3)c2C)cc1C > 76.9 µM
COc1ccc(C(=O)N2c3ccccc3CC2C)cc1OC (stereo not drawn) > 76.9 µM
CCc1c(C)c(C#N)c2nc3ccccc3n2c1N(C)C > 76.9 µM
COc1ccc(OCc2nn3c(-c4ccccn4)nnc3s2)cc1 > 76.9 µM
CCOC(=O)c1nnn(CC(=O)Nc2cccc(Cl)c2C)c1C(=O)OCC > 76.9 µM
COC(=O)c1ccc(C(=O)OC)c(NC2=NS(=O)(=O)c3ccccc32)c1 > 76.9 µM
COC(=O)c1nnn(CC(=O)Nc2cccc(Cl)c2C)c1C(=O)OC > 76.9 µM
COc1ccc(CCNC(=O)CSc2nnc(-c3ccccc3)o2)cc1OC > 76.9 µM
CCOC(=O)c1c(-c2ccccc2)[nH]c2ccc(O)cc12 > 76.9 µM
CC1CCCC(C)N1C(=O)C1CC(c2ccc(F)cc2)=NO1 (stereo not drawn) > 76.9 µM
O=C(CCn1c(=O)oc2ccccc21)Nc1ccccc1 > 76.9 µM
COC(=O)c1c(N)c2ccccc2[nH]c1=O > 76.9 µM
COc1ccccc1CNS(=O)(=O)c1c(C)noc1C > 76.9 µM
O=C1OCC(c2ccccc2)=C1c1ccc(S(=O)(=O)N2CCOCC2)s1 > 76.9 µM
CCOC(=O)C1CCN(C(=O)c2cn(-c3ccccc3)nc2-c2cccnc2)CC1 > 76.9 µM
CCOc1ccc(NC(=O)CSc2nnc(C)n2CCCOC)cc1 > 76.9 µM
CCC(=O)N1CCc2cc(Br)cc(S(=O)(=O)NCc3ccco3)c21 > 76.9 µM
Cc1cc(C)c(C#N)c(SCc2ccc3c(c2)OCO3)n1 > 76.9 µM
COC(=O)c1cnn(C(=O)c2cc(OC)ccc2Br)c1N > 76.9 µM
CC(C)COc1ccc(/C(O)=C2/C(=O)C(=O)N(CCN(C)C)C2c2ccncc2)cc1 (stereo not drawn) > 76.9 µM
O=C(O)c1ccccc1OCCOc1ccccc1 > 76.9 µM
C=CCn1c(Cc2csc(N)n2)nnc1SCc1ccc(C(=O)OC)cc1 > 76.9 µM
Cc1nn2c(-c3cccc(NC(=O)CN4CCOCC4)c3)nnc2c2ccccc12 > 76.9 µM
